Binding signal (normalized occupancy) data for 172 sequences are collected here from paper PMC4242493.

Some of the results follow. The list includes weakly bound sequences.

The target in this test is MaxL homodimer (UniProt P61244). As to the kind of experiment: universal protein-binding microarray (PBM). Particulars: PBS-based mixture, 10 nM His-tagged protein dimer, 2% milk, 200 ng/uL BSA, 50 ng/uL salmon testes DNA, 0.02% TX-100; detection with Alexa 488 anti-His …; high values mean tight binding; most listed sequences are background and not binding sites; double strand, one strand shown.
Sequence of UniProt P61244 (P61244 whole entry): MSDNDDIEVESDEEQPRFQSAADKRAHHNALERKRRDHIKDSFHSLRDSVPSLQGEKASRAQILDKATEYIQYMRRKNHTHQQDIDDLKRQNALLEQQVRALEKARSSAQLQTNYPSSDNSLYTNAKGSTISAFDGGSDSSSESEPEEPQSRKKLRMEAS
Take AGCCAACA: the binding signal (normalized occupancy) amounted to 0.0808.
As for AACTCAGC, the figure is 0.0711; as for AATAATCC, 0.0765.
As for AGGGCCCG, the figure is 0.0707.
Turning to AGTAGACC, the binding signal (normalized occupancy) came to 0.073.
As for GGATTCAC, the figure is 0.0757.
Take AGTGCACC: the binding signal (normalized occupancy) was 0.0743.
As for CCAGATAC, the binding signal (normalized occupancy) is 0.0776.
As for ACATACAC, the figure is 0.0864; as for AGGTAGAA, 0.0764; as for CCACCAAA, 0.0705.
As for CAATAGGC, the figure is 0.0693.
For CCCCATAC, the binding signal (normalized occupancy) worked out at 0.0855.
Consider GGTTCCTA, for which the binding signal (normalized occupancy) was 0.0705.
As for CTCAGCAC, the figure is 0.0798; as for CCCACGTC, 0.0804; as for ACTGGTCA, 0.0714.
Take GACGAGTC: the binding signal (normalized occupancy) is 0.0712.
Turning to ATGCCAAC, the binding signal (normalized occupancy) was found to be 0.0785.
As for CTAGGGAC, the figure is 0.0703; as for CACGCTCC, 0.0886; as for GCGCCCAC, 0.0744.
For AGCACGAT, the binding signal (normalized occupancy) stood at 0.0857.
On to AAGGGTGT, for which the binding signal (normalized occupancy) was 0.0759.
As for AGGAAATC, the binding signal (normalized occupancy) was 0.0742.
As for CTACCTCC, the figure is 0.0776.
On to AGTAAGTG, for which the binding signal (normalized occupancy) was determined as 0.0722.
As for CTCTGCTC, the figure is 0.0677; as for ATTCACGC, 0.093; as for CCCACCAC, 0.0842.
As for AGATGGTA, the figure is 0.0798; as for ACTAGTCC, 0.0743.
As for AACTTTGG, the binding signal (normalized occupancy) was determined as 0.0711.
As for CGCTGAAC, the figure is 0.0719; as for CTAGACAG, 0.0763.
As for AATAGTCA, the figure is 0.0803; as for AAGGCACT, 0.071.
As to CTCGCTAC, the binding signal (normalized occupancy) was found to be 0.0693.
Regarding GAGTGAGA, the binding signal (normalized occupancy) came to 0.0795.
As for ATGCCCAG, the figure is 0.0765.
As for ACAGTGCG, the binding signal (normalized occupancy) was 0.0786.
As for CGTGGGTA, the figure is 0.0867.
Turning to CTCAAGAA, the binding signal (normalized occupancy) was 0.0729.
As for AGAGAGCG, the figure is 0.0674; as for ATACCTAG, 0.0756; as for AGCGTGCA, 0.108.
As to AAGTGGTA, the binding signal (normalized occupancy) was found to be 0.0752.
On to CACGGATG, for which the binding signal (normalized occupancy) was 0.0776.
As for CCATCGTA, the figure is 0.0798; as for AACTAAGC, 0.0683; as for AGCAACTG, 0.0694.
On to AGCTCAGA, for which the binding signal (normalized occupancy) amounted to 0.0726.
As for ATGTCATA, the figure is 0.0875.
As for GCGCGGAA, the figure is 0.0739; as for ACTCCGCA, 0.077.
As for ACGCGCCA, the figure is 0.0799; as for GGGCTCAC, 0.0747.
AGCCTTCC: the binding signal (normalized occupancy) was 0.0678.
As for ACTGGTTC, the figure is 0.0704; as for CACGAACG, 0.0756.
As for CGCGTATA, the figure is 0.0739.
As for ATAGGGCG, the figure is 0.0757; as for CACGCACA, 0.0923; as for GCCAGAGA, 0.0691.
On to CGGTGCTA, for which the binding signal (normalized occupancy) worked out at 0.074.
As for ATGTATCC, the figure is 0.0851; as for CTCTCCTC, 0.0763; as for GCCCCCGC, 0.0725.
Turning to AGCCCATC, the binding signal (normalized occupancy) is 0.0708.
As for GCTTTATA, the figure is 0.0779; as for ACGACCAG, 0.0771.
As for ATCGTCAG, the binding signal (normalized occupancy) was 0.073.
On to CCTTGGAC, for which the binding signal (normalized occupancy) was determined as 0.0694.
As for GCTGGACC, the figure is 0.0695; as for CAGACCGA, 0.0678; as for CGGGCACA, 0.0728.
On to AACAGCGG, for which the binding signal (normalized occupancy) was found to be 0.0696.
As to CGGTCACC, the binding signal (normalized occupancy) amounted to 0.0714.
As for AAGCTTTG, the figure is 0.0692.
CGTGCGGC: the binding signal (normalized occupancy) was 0.0868.
As for AACTGAAA, the figure is 0.0716; as for ATCTGTTA, 0.0767; as for CGCGTTGC, 0.0781.
GATGACGC: the binding signal (normalized occupancy) was 0.0757.
As for CGCATGAA, the figure is 0.0861.
As for AAGTTATC, the figure is 0.0766; as for ACTACAAC, 0.0774.
As for ATGTGGTA, the figure is 0.0922; as for CAAACCTG, 0.0755.
In the case of ACTTAATG, the binding signal (normalized occupancy) was 0.0716.
As for CGGCTGAA, the figure is 0.0645.
Consider ACACCTAG, for which the binding signal (normalized occupancy) is 0.0768.
For GACCTGGC, the binding signal (normalized occupancy) stood at 0.0687.
As for CCACACCC, the figure is 0.0868; as for CACTGGTA, 0.0765; as for CAAACGAA, 0.0718.
As for ACGTACAG, the figure is 0.0776; as for GAGGTTAA, 0.0751.
As for TATACGCA, the figure is 0.0816.
As to CGAGCTAC, the binding signal (normalized occupancy) is 0.073.
Consider CACCCTGC, for which the binding signal (normalized occupancy) worked out at 0.0738.
As for GGCCCGCC, the figure is 0.0726.
For the sequence CCCTACGG, the binding signal (normalized occupancy) was 0.0685.
On to AATCCCCA, for which the binding signal (normalized occupancy) is 0.0823.
As for ACAGGCAT, the figure is 0.0804; as for GCTGTGCA, 0.075; as for AATTTGCG, 0.0688.
In the case of AAGAGTTG, the binding signal (normalized occupancy) worked out at 0.0714.
As for CAGGTCCA, the figure is 0.0775; as for CTCGCCTA, 0.0715; as for ATACAGCG, 0.077.
As for ATCAATCG, the figure is 0.0807; as for ACAATCTG, 0.0757; as for AATAATTC, 0.0795.
In the case of CATTCAAC, the binding signal (normalized occupancy) stood at 0.0769.
As to ACCACGAG, the binding signal (normalized occupancy) worked out at 0.115.
For ATAGGGAA, the binding signal (normalized occupancy) stood at 0.0721.
On to CGCACCGA, for which the binding signal (normalized occupancy) was determined as 0.077.
Regarding ACAGAAAG, the binding signal (normalized occupancy) was determined as 0.0747.
As for ACTGCGTC, the figure is 0.0666; as for GCCTGGGA, 0.068; as for ATGACCTC, 0.0796.
As for CGCATGCA, the figure is 0.122; as for TAGGAATA, 0.0757; as for CCCGATAC, 0.0717.
Turning to CCGCCTCA, the binding signal (normalized occupancy) was found to be 0.0698.
As for CTCTATCC, the figure is 0.0797; as for GAACGCGC, 0.0708; as for TAGGTCGA, 0.072.
As for AGGCGAGC, the figure is 0.0637; as for CACAATTC, 0.0794; as for GCAAAACC, 0.071.
As for CCGTTTTA, the figure is 0.0759.
For ACTATGAT, the binding signal (normalized occupancy) came out at 0.0785.
As to ACAACAGT, the binding signal (normalized occupancy) amounted to 0.0722.
As for GCGGTCAC, the figure is 0.0757.
On to GTATGGAC, for which the binding signal (normalized occupancy) is 0.0779.
As for TAAGGAAA, the figure is 0.0738; as for AACGAATT, 0.0717.
Consider CGTCTCTA, for which the binding signal (normalized occupancy) was found to be 0.0733.
As for ATTGACTG, the figure is 0.0739; as for TATATGCA, 0.0896.
As to ACAGCGAT, the binding signal (normalized occupancy) stood at 0.0762.
As for ACGGGAGT, the figure is 0.0773; as for AGTTCAAT, 0.0795.
Consider GATTTATA, for which the binding signal (normalized occupancy) was determined as 0.0736.
For CGACGGAG, the binding signal (normalized occupancy) was 0.0681.
On to AAACATCA, for which the binding signal (normalized occupancy) came out at 0.0844.
As for ACATGCAG, the figure is 0.097.
With GGCGGAAA, the binding signal (normalized occupancy) worked out at 0.0683.
In the case of AAGTGGAC, the binding signal (normalized occupancy) came to 0.0717.
As for CGATGACA, the figure is 0.0817; as for CAGTGCCG, 0.0707.
For the sequence CTTATAGC, the binding signal (normalized occupancy) turned out to be 0.0825.
In the case of AAAGTCTT, the binding signal (normalized occupancy) stood at 0.0698.
Consider GCTACACA, for which the binding signal (normalized occupancy) is 0.0771.
Consider CCGGAACC, for which the binding signal (normalized occupancy) stood at 0.0683.
As for ACCGCCAC, the figure is 0.0803.
As for CATGTAGG, the figure is 0.0929.
As for CTATTCAA, the figure is 0.0762.
CAAACGCG: the binding signal (normalized occupancy) was determined as 0.0748.
As for GCTAGAGC, the figure is 0.0669.
As for CACATGTG, the figure is 0.216; as for AGTTTCGC, 0.0689; as for ACCAACTC, 0.0732.
Regarding AGAACGCA, the binding signal (normalized occupancy) was determined as 0.0762.
As for ATCCTGCC, the figure is 0.0784; as for ACCCCCTA, 0.0797; as for TGTATGAA, 0.0859.
As for AGTGTTAA, the figure is 0.0742.
As for CAGTAAAA, the figure is 0.0717; as for AAGACTTA, 0.0751.
